{
  "source": "PubChem BioAssay AID360",
  "about": "(National Center for Advancing Translational Sciences (NCATS), 2006)",
  "note": "Out of some 48,000 compounds screened, about 550 (1.1%) were called active. Inconclusive results (about 4%) are left out. No stated cut-off is given here; in the data, active means potency below about 15 µM; inconclusive means mostly about 16 µM to 33 µM; inactive means weaker than that. The list shows a part of the results. Potency means the concentration at half of the fitted maximal effect.",
  "data": [
    {"molecular_target": "Lysosomal acid glucosylceramidase (Homo sapiens) (UniProt P04062)", "sequence (P04062 whole entry, looked up)": "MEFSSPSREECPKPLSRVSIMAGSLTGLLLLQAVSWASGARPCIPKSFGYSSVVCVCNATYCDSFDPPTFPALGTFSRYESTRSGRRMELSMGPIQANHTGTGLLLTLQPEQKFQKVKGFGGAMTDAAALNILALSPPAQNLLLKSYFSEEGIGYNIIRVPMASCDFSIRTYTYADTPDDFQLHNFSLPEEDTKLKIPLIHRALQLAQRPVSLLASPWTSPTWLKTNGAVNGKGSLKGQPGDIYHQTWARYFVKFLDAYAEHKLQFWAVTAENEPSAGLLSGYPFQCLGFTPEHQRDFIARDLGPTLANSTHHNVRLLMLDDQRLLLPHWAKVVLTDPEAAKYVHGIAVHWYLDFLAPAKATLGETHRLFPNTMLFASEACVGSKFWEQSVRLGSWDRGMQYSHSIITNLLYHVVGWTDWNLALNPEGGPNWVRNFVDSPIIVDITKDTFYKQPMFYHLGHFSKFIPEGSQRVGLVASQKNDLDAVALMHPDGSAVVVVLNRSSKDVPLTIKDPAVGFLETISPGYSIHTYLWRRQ", "assay": "Glucocerebrosidase;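 further: the screen sought inhibitors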", "details": "purified enzyme, resorufin glucoside fluorescence (screen aimed at inhibitors), 20 min", "method_in_brief": "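Compounds titrated against 0.2 nM normal enzyme, 30 uM resorufin beta-D-glucopyranoside substrate, citrate/phosphate buffer with taurocholate and tween-20, pH 5.9. Reaction ran 20 min at room temperature; fluorescence (Ex 548/Em 600) gave AC50.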", "values": [
      {"smiles": "COc1cc2c(=O)n(Cc3ccco3)c(=O)n(CC(=O)c3cccc(Br)c3)c2cc1OC", "Potency": "inactive: > 76.9 µM"},
      {"smiles": "O=c1[nH]c2cc3c(cc2cc1C(c1nnnn1C1CCCC1)N1CCSCC1)OCCO3", "note": "(stereo not given)", "Potency": "inactive: > 76.9 µM"},
      {"smiles": "CCCCOc1ccc(-c2nnc(-c3ccncc3)o2)cc1", "Potency": "inactive: > 76.9 µM"},
      {"smiles": "O=C(Cn1cccc1C(=O)c1ccccc1)NCc1ccco1", "Potency": "inactive: > 76.9 µM"},
      {"smiles": "CC(=O)N(CN1C(=O)C2CC=CCC2C1=O)c1cccc(Cl)c1", "note": "(stereo not given)", "Potency": "inactive: > 76.9 µM"},
      {"smiles": "Cc1ccc(S(=O)(=O)Nc2c(C)n(C)n(-c3ccccc3)c2=O)cc1C(=O)NCc1ccccn1", "Potency": "inactive: > 76.9 µM"},
      {"smiles": "FC(F)(F)c1nnc2sc(-c3ccccn3)nn12", "Potency": "inactive: > 76.9 µM"},
      {"smiles": "COc1ccccc1-c1nc2s/c(=C\\c3cccs3)c(=O)n2n1", "Potency": "active: 5.81 µM"},
      {"smiles": "O=C1CCC(C(=O)Nc2ccc(OC(F)F)cc2)N1", "note": "(stereo not given)", "Potency": "inactive"},
      {"smiles": "Cc1cc(=O)n2c(c1C#N)SC1CCCCC12O", "note": "(stereo not given)", "Potency": "inactive: > 76.9 µM"},
      {"smiles": "Cc1nc(SCC(=O)Nc2c(C)n(C)n(-c3ccccc3)c2=O)[nH]c(=O)c1Cc1ccccc1", "Potency": "inactive: > 76.9 µM"},
      {"smiles": "C=CCN(Cc1cc(OC)ccc1OC)S(=O)(=O)N(C)C", "Potency": "inactive: > 76.9 µM"},
      {"smiles": "CC(C)(C)NC(=O)CN(Cc1cccs1)C(=O)c1csnn1", "Potency": "inactive: > 76.9 µM"},
      {"smiles": "COc1cc(S(=O)(=O)N2CCCCC2)ccc1NC(=O)c1ccc(F)cc1", "Potency": "inactive: > 76.9 µM"},
      {"smiles": "O=C(COC(=O)C1(c2ccc(F)cc2)CCCC1)N1CCN(C(=O)c2ccco2)CC1", "Potency": "inactive: > 76.9 µM"},
      {"smiles": "O=C(COC(=O)c1ccco1)Nc1ccc2c(c1)OCCO2", "Potency": "inactive: > 76.9 µM"},
      {"smiles": "COc1ccc(N2CCN(S(=O)(=O)c3ccc(Cl)c(C(F)(F)F)c3)CC2)cc1", "Potency": "inactive: > 76.9 µM"},
      {"smiles": "Cc1cc(NC(=O)CN2CCN(c3ccccc3O)CC2)no1", "Potency": "inactive: > 76.9 µM"},
      {"smiles": "Oc1cccc(Nc2nc(NCC3CCCO3)c3ccccc3n2)c1", "note": "(stereo not given)", "Potency": "active: 7.62 µM"},
      {"smiles": "CCCCCCC(=O)N(O)C1CC(=O)N(Cc2ccccc2)C1=O", "note": "(stereo not given)", "Potency": "inactive: > 76.9 µM"},
      {"smiles": "CCCn1c(=O)c2ccccc2n2c(SCc3c(C(=O)OCC)oc4ccccc34)nnc12", "Potency": "inactive: > 76.9 µM"},
      {"smiles": "COc1ccc(OC)c(NC(=O)Cn2cccc2)c1", "Potency": "inactive: > 76.9 µM"},
      {"smiles": "O=S(=O)(N1CCCCC1)N1CCCN(S(=O)(=O)N2CCCCC2)CC1", "Potency": "inactive: > 76.9 µM"},
      {"smiles": "CC(C)CNC(=O)c1cc(-c2ccc(Br)cc2)on1", "Potency": "inactive: > 76.9 µM"},
      {"smiles": "Cc1ccc(-c2c(C)c(-c3ccc(F)cc3)nc(N)c2C#N)o1", "Potency": "inactive: > 76.9 µM"},
      {"smiles": "COc1ccc(N2C(=O)C(Cl)=C(N(CCO)Cc3ccccc3)C2=O)cc1", "Potency": "inactive: > 76.9 µM"},
      {"smiles": "C=CCn1cnc2c(c1=O)c1nc3ccccc3nc1n2Cc1ccccc1", "Potency": "inactive: > 76.9 µM"},
      {"smiles": "Cc1cccn2c(=O)c3cc(C#N)c(=NC(=O)c4ccc5c(c4)OCO5)n(CC(C)C)c3nc12", "Potency": "inactive: > 76.9 µM"},
      {"smiles": "CC1(C)OC(=O)N(c2ccccn2)C1(C)O", "note": "(stereo not given)", "Potency": "inactive: > 76.9 µM"},
      {"smiles": "Cc1ccccc1CN1CCN(CC(=O)NCc2ccco2)C1=O", "Potency": "inactive: > 76.9 µM"},
      {"smiles": "O=C1c2ccccc2C(=O)N1CCCC(=O)N1CCCc2ccccc21", "Potency": "inactive: > 76.9 µM"},
      {"smiles": "Cn1c(SCC(N)=O)nnc1C1CCN(C(=O)NC2CCCCC2)CC1", "Potency": "inactive: > 76.9 µM"},
      {"smiles": "COc1ccccc1C1/C(=C(/O)c2ccc(Cl)cc2)C(=O)C(=O)N1CCN1CCOCC1", "note": "(stereo not given)", "Potency": "inactive: > 76.9 µM"},
      {"smiles": "CCC(C)(C)NC(=O)CN(CC1CCCO1)C(=O)CCC(=O)Nc1nccs1", "note": "(stereo not given)", "Potency": "inactive: > 76.9 µM"},
      {"smiles": "CCSc1nnc2c(Cl)cc(Cl)cn12", "Potency": "inactive: > 76.9 µM"},
      {"smiles": "O=C(CN1CC(=O)Oc2ccccc21)OCC(=O)c1ccccc1", "Potency": "inactive: > 76.9 µM"},
      {"smiles": "COc1ccc(OC)c(NC(=O)C(CC(C)C)NC(=O)C2CCCCC2)c1", "note": "(stereo not given)", "Potency": "inactive: > 76.9 µM"},
      {"smiles": "COc1cc2c(cc1OC)C1=C(C#N)CCC(=O)N1CC2", "Potency": "inactive: > 76.9 µM"},
      {"smiles": "CCOC(=O)N1CCN(C(=O)CSCC(=O)Nc2nc(-c3ccccc3)cs2)CC1", "Potency": "inactive: > 76.9 µM"},
      {"smiles": "Cc1cc(C(=O)Nc2ccc(S(=O)(=O)Nc3nccs3)cc2)c(C)o1", "Potency": "inactive: > 76.9 µM"},
      {"smiles": "CC(=O)N1C(=O)N(C)C2C1N(C)C(=O)N2C(C)=O", "note": "(stereo not given)", "Potency": "inactive: > 76.9 µM"},
      {"smiles": "Cc1nc2ncnn2c(N2CCC(C(=O)NC3CCCC3)CC2)c1Cc1ccccc1", "Potency": "inactive: > 76.9 µM"},
      {"smiles": "C=CCn1c2ccccc2c2nnc(SCC(=O)NC(C(=O)OC)C(C)C)nc21", "note": "(stereo not given)", "Potency": "inactive: > 76.9 µM"},
      {"smiles": "CC(NC(=O)C1CC2CCCC(C1)C2=O)c1ccccc1", "note": "(stereo not given)", "Potency": "inactive: > 76.9 µM"},
      {"smiles": "Cc1cc(C(=O)CSc2nnc(N)s2)c(C)n1CCc1ccc(F)cc1", "Potency": "inactive: > 76.9 µM"}
    ]}
  ]
}
